# Measured values as given in patent US20210301011A1, “COMPOSITION FOR PROPHYLAXIS OR TREATMENT OF IL-8 RELATED DISEASES” (CHUGAI SEIYAKU KABUSHIKI KAISHA, priority 2016, published 2021).
# Tests used:
# human IL-8 [1] = molecular target: T1, human IL-8 (Homo sapiens, UniProt P10145); test: Mouse PK assay: human IL-8 elimination after simultaneous administration of human IL-8 and anti-human IL-8 antibody; assay type: in vivo, mice (C57BL/6J); conditions: C57BL/6J mice; antibody 2 mg/kg
# Procedure: After simultaneous administration of human IL-8 and anti-human IL-8 antibodies to mice (C57BL/6J, Charles river), pharmacokinetics of human IL-8 were evaluated. A mixed solution of human IL-8 and an anti-human IL-8 antibody (10 μg/mL and 200 μg/mL, respectively) was administered in a single dose at 10 mL/kg to the tail vein. […] Blood was collected five minutes, two hours, four hours, seven hours, one day, two days, three days, seven days, 14 days, 21 days, and 28 days after the administration. The collected blood was immediately centrifuged at 15,000 rpm and 4° C. for 15 minutes to obtain plasma. The separated plasma was stored in a freezer set at −20° C. or below until measurements were taken.
# The human IL-8 concentration in mouse plasma was determined by an electrochemiluminescence method. […] Then, after one hour of reaction with a Biotin Mouse Anti-Human Igκ Light Chain (BD Pharmingen) at room temperature, and then one hour of reaction with SULFO-TAG Labeled Streptavidin (Meso Scale Discovery) at room temperature, Read Buffer T (×1) (Meso Scale Discovery) was dispensed, and measurements were performed immediately with SECTOR Imager 2400 (Meso Scale Discovery). The human IL-8 concentration was calculated based on the response in the calibration curve using the analytical software, SOFT Max PRO (Molecular Devices). […]
# [2] = test system: extracellular matrix (BD Matrigel Basement Membrane Matrix); test: Amount of antibody binding to the extracellular matrix by the ECL method; conditions: pH 7.4
# Procedure: Extracellular matrix (the BD Matrigel Basement Membrane Matrix/manufactured by BD) was diluted to 2 mg/mL using TBS (Takara, T903). The diluted extracellular matrix was dispensed into the MULTI-ARRAY 96 well Plate, High bind, Bare (manufactured by Meso Scale Discovery: MSD) at 5 μL per well, and immobilized overnight at 4° C. Then, blocking was performed using 20 mM ACES buffer (pH 7.4) containing 150 mM NaCl, 0.05% Tween20, 0.5% BSA, and 0.01% NaN3.
# The antibodies to be evaluated were prepared as follows. The antibody samples to be added alone were prepared by diluting each antibody to 9 μg/mL using Buffer-1 shown below, and then further diluting them using Buffer-2 to a final concentration of 3 μg/mL.
# Buffer-1: 20 mM ACES buffer containing 150 mM NaCl, 0.05% Tween20, and 0.01% NaN3, at pH 7.4 Buffer-2: 20 mM ACES buffer containing 150 mM NaCl, 0.05% Tween20, 0.1% BSA, and 0.01% NaN3, at pH 7.4 […]
# Next, solutions of the antibody alone or the complex were added to the plate from which the blocking solution had been removed, and this was shaken at room temperature for one hour. […] The antibody for ECL detection was removed, a solution produced by 2-fold dilution of the MSD Read Buffer T (4×) (manufactured by MSD) using ultrapure water was added, and then the amount of luminescence was measured by SECTOR Imager 2400 (manufactured by MSD).
# human IL-8 [3] = molecular target: T1, human IL-8; test: IL-8-binding affinity (BIACORE T200, pH 7.4 40° C. / pH 5.8 37° C.); conditions: Table 15, in 1/s
# Procedure: The following two running buffers were used, and measurements were carried out at the respective temperatures:
# For the running buffer, either one of the above-mentioned solutions was used, and the respective buffers were also used to dilute human IL-8.
# T1 sequence (P10145 23-99 limits assumed): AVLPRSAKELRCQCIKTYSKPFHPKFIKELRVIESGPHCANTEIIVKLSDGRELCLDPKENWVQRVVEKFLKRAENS
Molecule,increase of rate of human IL-8 elimination (CL) as compared to H998/L63 (human IL-8 [1]),"binding to the extracellular matrix, complex with human IL-8 (+hIL8) ([2]; antibody 3 μg/mL with human IL-8 at ten times the molar concentration)","binding to the extracellular matrix, antibody alone (−IL8) ([2]; antibody 3 μg/mL)",pH 5.8 koff (human IL-8 [3])
"H1009/L395: pH-dependent anti-IL-8 antibody, H1009-IgG1m (SEQ ID NO:48) heavy chain, L395-kOMT light chain (antibody) heavy: QVQLVESGGGLVQPGGSLRLSCAASGFTFSDYYLSWVRQAPGKGLEWVGLIRNKDNYHTPEYSASVKGRFTISRDDSKNSLYLTMSDLKTEDTAVYYCARENHRYDVELAYWGQGTLVTVSS[human IgG1 constant region skipped] light: DIQMTQSPSSLSASVGDRVTITCRASEIIYSYLAWYQQKPGKAPKLLIYKAKTHADGVPSRFSGSGSGTDFTFTISSLQPEDIATYYCKHHFGFPRTFGQGTKVEIKRTVAAPSVFIFPPSDEQLKSGTASVVCLLNNFYPREAKVQWKVDNALQSGNSQESVTEQDSKDSTYSLSSTLTLSKADYEKHKVYACEVTHQGLSSPVTKSFNRGEC",approximately 30 fold,bound to the extracellular matrix upon complex formation with human IL-8,hardly showed any binding to the extracellular matrix,–
"H1040/L0442: anti-IL-8 antibody: heavy chain H1040 with light chain L442 (Tables 14-2, 14-3) (antibody) heavy: QVQLVESGGGLVQPGGSLRLSCAASGFTFSEYYLSWVRQAPGKGLEWVGLIRNKDNHHHPEYSASVKGRFTISRDDSKNSLYLTMSDLKTEDTAVYYCARENHRYDVELAYWGQGTLVTVSS[human IgG1 constant region skipped] light: DIQMTQSPSSLSASVGDRVTITCRASEIIYEYLAWYQQKPGKAPKLLIYKAKTHADGVPSRFSGSGSGTDFTFTISSLQPEDIATYYCKHHFGFPRTFGQGTKVEIKRTVAAPSVFIFPPSDEQLKSGTASVVCLLNNFYPREAKVQWKVDNALQSGNSQESVTEQDSKDSTYSLSSTLTLSKADYEKHKVYACEVTHQGLSSPVTKSFNRGEC",–,–,–,2.1E+01
